Experimental data as given in PubChem BioAssay AID1347120 (National Center for Advancing Translational Sciences (NCATS), 2019).
Screen size: about 390,000 compounds; about 930 (0.24%) were called active. Inconclusive results, whose numbers are uncertain, are shown with a selection of clear calls. The call rests on the fitted dose curve; in most records, active means well fitted activation curve with a large enough effect; inconclusive means small, poorly fitted or top-dose-only effect; inactive means no such curve, though single readings can be large or run the other way. A potency beside an inconclusive call is a rough fit, not a confirmed value.

assay: qHTS for Suppressors of FUS Proteinopathy: Primary screen using FUS-linked yeast assay; further: nearly all actives have a fitted effect of over 55% in size;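 on growth rescue (activation): plate controls were DMSO vehicle for no effect and reference control for full effect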; settings: S. cerevisiae FUS-expressing, OD600, 24 h; Potency: growth rescue; growth rescue (activation): at 76.6 µM (top of the series)
In short: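 Galactose (2%) drives FUS expression in yeast precultured in raffinose; seeding density OD 0.005. Test compounds incubated 24hr at 30C and 99% humidity before absorbance at 600 nm was measured.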
Potency means the concentration at half of the fitted maximal effect; tags describe the fitted curve by direction and shape.

Row | SMILES | Potency | growth rescue (activation)
1 | Cc1ccc(CN2CC(=O)N3[C@H]4c5cc(Cl)ccc5OC[C@@H]4[C@H](c4ccccc4)[C@]3(C)C2=O)cc1 | inconclusive: 35.5 µM [activator, single point] | –
2 | Cc1ccc(C(=O)NCc2ccco2)cc1Br | – | inconclusive: 21% [activator]
3 | O=C(O)Cc1cn(Cc2cccc(Cl)c2)c2ccccc12 | – | inactive: -33.7%
4 | COc1ccc(C(=O)N(Cc2cc(OC)c(OC)c(OC)c2)C2CCS(=O)(=O)C2)cc1Cl (stereo unspecified) | – | inactive: 17.1%
5 | O=C(c1ccccc1[N+](=O)[O-])N1CCCC(C(=O)N2CCCCCC2)C1 (stereo unspecified) | – | inactive: -4.68%
6 | O=C(CN1C(=O)COc2ccc(S(=O)(=O)N3CCOCC3)cc21)N1CCN(c2ccccc2F)CC1 | – | inactive: -5.83%
7 | CCCOc1ccc(CNC(=O)CN2C(=O)c3cccnc3Oc3ccc(C)cc32)cc1 | inconclusive: 28.2 µM [activator, single point] | –
8 | CCOc1cc(-c2noc(CCC(=O)NC3CCCCC3)n2)ccc1OC | inconclusive: 44.7 µM [activator, partial curve, poor fit] | –
9 | COc1ccc(N2C(=O)C3C(C2=O)C(C(=O)c2ccccc2)N2CCCC32)cc1 (stereo unspecified) | inconclusive: 50.1 µM [activator, single point] | –
10 | COc1cccc(Nc2nc(-c3sc(NC(=O)CC(C)C)nc3C)cs2)c1 | inconclusive: 35.5 µM [activator, single point] | –
11 | Cc1cc(NC(=O)C2CCCN(S(=O)(=O)c3cccc4nsnc34)C2)ccc1Br (stereo unspecified) | – | inactive: -15.8%
12 | Cn1cccc1C(=O)Nc1nc(-c2ccccn2)cs1 | inconclusive: 25.1 µM [activator, partial curve] | –
13 | COc1ccc(NC(=O)c2cc(-c3cc(F)ccc3OC(C)C)n[nH]2)c(C)c1 | inconclusive: 28.2 µM [activator, single point] | –
14 | C=CCOC(=O)C1=C[C@H](c2cn(C(C)=O)c3ccccc23)C[C@H](OCc2ccc(CO)cc2)O1 | inconclusive: 25.1 µM [activator, single point] | –
15 | Cc1ccc(OCC(=O)Nc2cccc(C(=O)OCc3cc(=O)n4c(C)csc4n3)c2)cc1 | inconclusive: 25.1 µM [activator, single point] | –
16 | O=C(Cn1c(C(=O)N2CCc3ccccc3C2)cc2sccc21)c1ccccc1 | inconclusive: 8.91 µM [activator, full curve, poor fit] | –
17 | COC(=O)[C@@]1(Cc2ccc(F)cc2)[C@H]2c3cc(C(=O)N4CCCC4)n(Cc4ccc(C)c(F)c4F)c3C[C@H]2CN1C(=O)c1ccccc1 | inconclusive: 15.8 µM [activator, partial curve] | –
18 | CCOc1ccccc1NC(=O)c1c(NC(=O)Cc2ccc(OC)cc2)sc2c1CCC2 | inconclusive: 11.2 µM [activator, partial curve, poor fit] | –
19 | Cc1ccccc1NC1=C(Cl)C(=O)OC1OC(=O)c1ccco1 (stereo unspecified) | – | inactive: -11.7%
20 | CC(=O)c1ccc(N2CCN(c3ncnc4c3cnn4-c3cc(Cl)ccc3C)CC2)cc1 | – | inactive: -4.48%
21 | Cc1ccc(CNC(=O)CN2N=C(c3ccccc3)CCC2=O)cc1 | – | inactive: 4.01%

Row | SMILES | Potency | growth rescue (activation)
22 | Cc1ccc(N(CC(=O)Nc2ccc(C)c(Cl)c2)S(=O)(=O)c2cccs2)cc1 | – | inactive: -26.1%
23 | CCOC(=O)[C@@]12CCC3=C1N(CCC3)C(=O)[C@H](CC(=O)NCCCN1CCCC1=O)C2 | – | inactive: 13.4%
24 | Cc1ccc(NC(=O)C2CCCN(S(=O)(=O)c3c(C)noc3/C=C/N(C)C)C2)cc1F (stereo unspecified) | inconclusive: 35.5 µM [activator, partial curve, poor fit] | –
25 | O=C(Nc1ccc(N2CCN(C(=O)c3cccs3)CC2)cc1)c1ccc(F)cc1 | – | inactive: -3.88%
26 | COc1ccc(NC(=O)CN(C)CC(=O)Nc2ccc(C)c(S(=O)(=O)N3CCCCC3)c2)cc1 | inconclusive: 15.8 µM [activator, partial curve] | –
27 | COc1ccc(-n2nc3c(N4CCCC(C(=O)NCCc5ccccc5C)C4)nnc(C)c3c2C)cc1 (stereo unspecified) | – | inactive: 15%
28 | Cc1ccccc1CSCC(=O)Nc1ccccc1F | – | inactive: 3.35%
29 | COc1ccc(/C=N/n2c(N)c(S(=O)(=O)c3cccs3)c3nc4ccccc4nc32)cc1OC | – | inactive: 15.6%
30 | CCOc1ccc(-c2[nH]nc3c2C(c2ccc4c(c2)OCO4)C(C#N)=C(N)O3)cc1OC (stereo unspecified) | inconclusive: 3.98 µM [activator, single point] | –
31 | COc1ccc(NC(=O)CN(C)C(=O)c2cn(-c3ccccc3)nc2-c2ccc(F)cc2)cc1 | inconclusive: 44.7 µM [activator, single point] | –
32 | Cc1ccc(C(=O)N2N=C(c3cccc(NS(C)(=O)=O)c3)CC2c2cccs2)cc1 (stereo unspecified) | inconclusive: 17.8 µM [activator, single point] | –
33 | COc1ccc(N(C(=O)/C=C/C(=O)Nc2cc(C)on2)C(C(=O)NC2CCCC2)c2ccccc2C)cc1 (stereo unspecified) | inconclusive: 28.2 µM [activator, single point] | –
34 | CC(=O)N1CCN(c2ccc(NCc3ccc(C)cc3)cc2)CC1 | inconclusive: 28.2 µM [activator, partial curve, poor fit] | –
35 | O=C(O)c1cccc(-n2cc(-c3cccc(C(F)(F)F)c3)cn2)c1 | – | inactive: -24.8%
36 | C=C(C)C(=O)Nc1cccc(C2=NOC3(C2)C[C@@H](C(N)=O)N(C(=O)c2cc([N+](=O)[O-])cc([N+](=O)[O-])c2C)C3)c1 (stereo partly specified) | inconclusive: 35.5 µM [activator, partial curve, poor fit] | –
37 | COc1ccccc1-n1c(SCC(=O)Nc2ccc(Cl)cc2)nc(O)c(Cc2ccccc2)c1=O | inconclusive: 20 µM [activator, single point] | –
38 | Cc1ccc(Cl)cc1N(C)C(=O)C1CCCN(c2ncnc3onc(-c4ccc(F)cc4)c23)C1 (stereo unspecified) | – | inactive: 5.26%
39 | CN(C)c1cccc(C(=O)OCCNC(=O)c2cccc(S(=O)(=O)N3CCOCC3)c2)c1 | – | inactive: 11.3%
40 | CC1(C)c2ccccc2N2CCC(=O)NC21/C=C/c1ccco1 (stereo unspecified) | inconclusive: 28.2 µM [activator, single point] | –
41 | CC(C)C[C@H]1CNC(=S)N1CC1CCCN1C[C@H](CC(C)C)N1C[C@H](Cc2ccc(O)cc2)N(CC2CCCCCC2)C1=S (stereo partly specified) | inconclusive: 25.1 µM [activator, partial curve, poor fit] | –
